Experimental data taken from article PMC12040169 (PLOS Biology, 2025).
Some of the results follow.

test system: T1, C. trachomatis L2/434/Bu expressing GFP (CTL2-GFP); design: species or system HeLa; C. trachomatis total inclusion area by high-content imaging, normalised to DMSO; details: total inclusion area; 28.5 h, 10 µM; inhibitor
T1 construct: L2/434/Bu GFP intracellular growth in HeLa cells
Summary of the method: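 Imaging read-out: GFP inclusions and Hoechst nuclei captured by high-content imaging after fixation. Inclusion area/number = chlamydial growth; nuclei count = host cell viability. MIC calculated per earlier method.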

| Structure (SMILES) | % of control remaining |
| --- | --- |
| CC(C(=O)NC1(C#N)CCCCC1)N1CCOC(Cn2cncn2)C1 (centres unmarked) [CBK305359] | 31.5779 |
| Cc1cc(C)n(C(C(=O)NCCOc2ccc(F)cc2)C(C)C)n1 (centres unmarked) [CBK281595] | 101.613 |
| O=C(c1ccc(CCN2CCCC2)nc1)N1CCN(CCc2ccccc2)CC1 [CBK200227] | 102.108 |
| Cc1nc(NC(=O)C2CC(=O)N(c3cccc(C(C)C)c3)C2)sc1-c1n[nH]c(=S)n1C (centres unmarked) [CBK295306] | 119.842 |
| N#Cc1ccc(N)c2ccccc12 [CBK015754] | 94.2598 |
| COc1ccc(-c2cc(C(=O)NCc3cc(Cl)cc(Cl)c3)cnc2-c2ccc(Cl)cc2)cn1 [CBK037431] | 123.208 |
| CC(NCC(O)c1ccco1)c1ccc(C#N)s1 (centres unmarked) [CBK304265] | 31.1802 |
| COC(=O)CCCC(=O)n1c(=O)n(Cc2ccc(S(C)(=O)=O)cc2)c2ccccc21 [CBK106538] | 75.1745 |
| CCOC(=O)C1=C(C)N(CCO)C(=O)NC1c1ccccc1Br (centres unmarked) [CBK027192] | 55.0744 |
| NNC(=O)c1cc(O)n[nH]1 [CBK262669] | 103.272 |
| Cc1c(NCc2ccccn2)cccc1C(=O)O [CBK269651] | 84.2293 |
| CCc1cc(-c2n[nH]c(C(=O)O)c2-c2nc(C)cs2)c(O)cc1O [CBK268247] | 96.3458 |
| CCn1c(=O)n(CC(=O)NCc2ccccc2)c2cccnc21 [CBK283824] | 63.8687 |
| COc1ccc(-c2cc(C(F)(F)F)nc(SCC(=O)Nc3ccc4c(c3)OCO4)n2)cc1OC [CBK266169] | 131.974 |
| Oc1cccc(-c2cn3ccnc3c(NCc3ccccn3)n2)c1 [CBK037535] | 117.061 |
| COc1ccc([C@@]23CC[C@@H](NS(=O)(=O)c4cccc5cccnc45)C[C@@H]2N(C)CC3)cc1OC [CBK056849T] | 104.218 |
| CCOc1cc2c(cc1CN(Cc1ccc3c(c1)OCO3)CC(C)O)CCC2 (centres unmarked) [CBK286474] | 95.7886 |
| COc1cc(CNC(=O)c2ccc(-c3ccc(NC(C)=O)cc3)nc2)cc(OC)c1OC [CBK158851] | 109.47 |
| CN1CCC(=NNC(=O)CSCc2ccccc2Br)CC1 [CBK026542] | 83.8462 |
| c1ccc(C2CCCNC2)cc1 (centres unmarked) [CBK011753] | 98.1304 |
| COc1ccc(OC)c(NC(=O)CSc2nnc(-c3ccco3)o2)c1 [CBK267429] | 90.7997 |
| O=c1[nH]c2ccccc2n1C1CCN(S(=O)(=O)c2ccc(OC(F)(F)F)cc2)CC1 [CBK149690] | 100.913 |
| CCNc1nnc(SCCC(=O)N2CCN(c3ccc(F)cc3)CC2)s1 [CBK305058] | 89.7784 |
| CCN(C(=O)c1cnc2scc(C)n2c1=O)c1ccccc1 [CBK287452] | 87.6799 |
| CC(=O)CSc1nnc(COc2ccc(C3CCCCC3)cc2)n1-c1ccccc1 [CBK265026] | 89.0881 |
| O=C(Nc1ccc2ncccc2c1)c1ccc(Cl)cc1Cl [CBK159793] | 98.8533 |
| COc1cncc(-c2cc(N3CCC(N4CCCCC4)CC3)ncn2)c1 [CBK090964] | 118.012 |

| Structure (SMILES) | % of control remaining |
| --- | --- |
| O=C(O)C1CCC(N2C(=O)C3C4CCC(C4)C3C2=O)CC1 (centres unmarked) [CBK287183] | 98.154 |
| Cc1nn(C)c(Cl)c1S(=O)(=O)Nc1cc(NC2CCNC2)c2occc2c1 (centres unmarked) [CBK067807C] | 80.2724 |
| CCC(CO)Nc1cncc(-c2cc(OC)c(OC)c(OC)c2)n1 (centres unmarked) [CBK037882] | 106.105 |
| Cc1nc(C2(O)CCCN(C3CCCCC3)CC2)sc1COc1ccc(F)c(F)c1 (centres unmarked) [CBK286499] | 64.8541 |
| CC(C)c1nccn1CC(=O)NCCOc1ccc(F)cc1 [CBK281597] | 88.8573 |
| Cc1oc(-c2ccccc2)nc1C(=O)O [CBK047490] | 81.0462 |
| Cc1ccc(C)c2[nH]c(=O)c(CN(CCN3CCOCC3)Cc3nnnn3C3CCCCC3)cc12 [CBK108116] | 79.1747 |
| COc1ccccc1NC(=O)/C(=C\c1cccnc1)NC(=O)c1ccccc1 [CBK261649] | 100.62 |
| Cc1ccc(S(=O)(=O)Nc2nccnc2-c2ccc(Cc3nnn[nH]3)cc2)cc1 [CBK073841] | 92.7541 |
| COCOc1ccc(-c2ncc(OC)nc2NC(=O)COC)cc1 [CBK145216] | 101.291 |
| CC(=O)N1C[C@@H](c2ccsc2)[C@@H]2CN(CC3CCCCC3)CC[C@@H]21 [CBK284587] | 120.218 |
| CN1CCN(C(=O)c2cc(-c3ccc(C(=O)N4CCOCC4)cc3)cnc2N)CC1 [CBK158584] | 84.2068 |
| O=C(N/N=C/c1ccc([N+](=O)[O-])cc1)C(=O)Nc1cccc(Cl)c1 [CBK261821] | 88.757 |
| CC1(C)CC(NC(=O)c2cc([N+](=O)[O-])ccc2Cl)CC(C)(C)N1 [CBK263948] | 95.6897 |
| O=C(O)CCC(=O)Nc1cccc(C(=O)Nc2cccc(Cl)c2)c1 [CBK296977] | 94.3109 |
| Fc1cc(F)cc(-c2nnc(Cc3nc(-c4ccncc4)no3)o2)c1 [CBK288602] | 91.1146 |
| Cc1ccc(Nc2nc(N)nc(CN3CCN(Cc4ccc5c(c4)OCO5)CC3)n2)cc1 [CBK268985] | 106.363 |
| O=C(NCCN1CCOCC1)C1CCN(C(=O)c2cccc(F)c2)CC1 [CBK304627] | 36.2168 |
| CC[n+]1c(C(C)(C)C)csc1NCC1CC1 [CBK011154B] | 64.2529 |
| CCN(CC)CCNC(=O)c1c(O)c2ccccc2n(Cc2ccccc2)c1=O [CBK291199] | 70.2783 |
| O=C(CN1C(=O)c2ccccc2C1=O)OCC(=O)N1c2ccccc2Sc2ccccc21 [CBK264701] | 104.599 |
| COC(=O)c1ccccc1NC(=O)COc1ccc(Cl)c2cccnc12 [CBK266037] | 150.297 |
| Cc1ccc(N2C(=O)c3ccccc3C2Nc2ccccc2)nc1 (centres unmarked) [CBK113238] | 86.4458 |
| CN(C)CCNc1nc(-c2cccc3ncccc23)cnc1N [CBK063693] | 140.019 |
| FC(F)c1cc(-c2ccccc2)n2ncnc2n1 [CBK025714] | 77.3205 |
| CCCn1ccnc1SCC(=O)Nc1ccc(CN2CCOCC2)cc1 [CBK306068] | 48.1241 |
| OCc1cc(N2CCOC3(CCCOC3)C2)ncc1F (centres unmarked) [CBK304774] | 58.6927 |

| Structure (SMILES) | % of control remaining |
| --- | --- |
| Cc1ccc(S(=O)(=O)n2c(SCc3ccccc3)nc3ccccc32)cc1 [CBK293933] | 85.8068 |
| COc1ccc(S(=O)(=O)N(C)CC(=O)Nc2ccc(C(N)=O)cc2)cc1Cl [CBK267891] | 102.709 |
| Cn1cc(-c2nccnc2OCCc2cccs2)cn1 [CBK107066] | 97.285 |
| Cn1c(Cc2csc(NC(=O)CNC(=O)Cc3ccccc3)n2)n[nH]c1=S [CBK296765] | 86.1948 |
| CC(C)(CC(=O)O)CC(=O)Nc1ccc(Cl)c(Cl)c1 [CBK086500] | 44.6238 |
| O=c1oc2c(CN3CCN(CCO)CC3)c(O)ccc2cc1-c1nc(-c2ccc(Br)cc2)cs1 [CBK264949] | 45.3528 |
| CC(=O)NC1CCN(CC2(c3ccc(F)cc3)CCCC2)CC1 [CBK283327] | 102.494 |
| Cc1ccc2oc(-c3cc(NC(=O)c4nc[nH]n4)ccc3O)nc2c1 [CBK266900] | 77.0778 |
| CC(=O)Nc1ccc(-c2cccc(COC3CCN(C(=O)c4ccc(OC(C)C)cc4)CC3)c2)cc1 [CBK149485] | 5.634 |
| Cc1ccc(S(=O)(=O)NCC(C)O)cc1-c1nnc2c3ccccc3c(C)nn12 (centres unmarked) [CBK266614] | 139.081 |
| CC(C)CC(C(=O)Nc1nnc(C(C)C)s1)N1C(=O)c2ccccc2C1=O (centres unmarked) [CBK091610] | 51.0472 |
| COc1ccc2[nH]c(SCC(=O)O)nc2c1 [CBK091620] | 72.5146 |
| O=C(NCCCN1CCOCC1)c1nn2c(C(F)(F)F)cc(-c3cccs3)nc2c1Cl [CBK262553] | 95.532 |
| OCc1nc2cc3cn[nH]c3cc2[nH]1 [CBK016203] | 106.727 |
| CC(C)[C@@H](CO)Nc1cncc(-c2cccc3ccccc23)n1 [CBK065566] | 20.1836 |
| CCOC(=O)c1cccc(-c2ccsc2)n1 [CBK149244] | 84.839 |
| O=C(NCCNc1ccc([N+](=O)[O-])cc1Cl)c1ccccc1Cl [CBK263541] | 87.1028 |
| Cn1cc(C(=O)NCC(c2ccc(F)cc2)N2CCCC2)ccc1=O (centres unmarked) [CBK282843] | 112.995 |
| CC(C)c1ccc(S(=O)(=O)N2CC3CC2CO3)cc1 (centres unmarked) [CBK050999] | 62.1049 |
| O=C(O)C(c1c[nH]c2ccccc12)N1CCN(Cc2ccncc2)CC1 (centres unmarked) [CBK286624] | 97.7419 |
| Cc1ccc(-c2cc3ccccn3c2C(=O)CSc2nncn2C)cc1 [CBK269580] | 87.609 |
| COCCCNC(=O)c1cccs1 [CBK009164] | 91.6469 |
| CC1CCN(Cc2ccc(-c3nnn(CC(=O)NCc4ccc(C(F)(F)F)nc4)n3)cc2)CC1 [CBK149721T] | 70.2149 |
| CCN(CC)c1ccc(C(=O)Cn2c(=O)n(C(=O)CCCc3ccc(OC)cc3)c3ccccc32)cc1 [CBK106503] | 114.141 |
| OCCN(Cc1cccnc1)Cc1cccn1-c1ccccc1Cl [CBK282936] | 108.266 |
| CC1CCCCC1NC(=O)Cn1ncc2cccn2c1=O (centres unmarked) [CBK283673] | 72.7047 |
